In all, about 4,500 sequences were measured (“median log2 fold change of GCK-ALFA target abundance (FLAG IP / Myc IP barcode read proportion)”: median about 0.078, lowest 2% from about -0.6 on). This is one part of the list.
B1: GBRAP_74_6558 (protein)
chain: VKEAIDALAAAVRATRVLRAEDLAAALAAATTPEAVEALGRALADVYAALRDQLRFDDPAAVADLLAELIDRLLEIGGDNEVIKTLTDLALDAEAAAAAA
B2: GBRAP_137_3675 (protein)
chain: SKVDITVEEEDGLTYITVKVEDPEKAEEFEEKLIDIAHEVGALAVAIERKEDGSLEVEIVVPEEKKEEALEKVLEVASEADEVNVKTIKDGKVTEEKIEK
B3: GBRAP_160_4597 (protein)
chain: SPETEKLIEEIDEIVEEAKKMIEGQSKEERIAIIKVMMGEILLELSLSPIVSDETEEKADEIADELIETIESNPDLSLEEIKALIEEAREKIIEAIKEDS
B4: GBRAP_39_5672 (protein)
chain: EEEEENENVVSYLEGVAAKYLYETGKSFEEAYEEAKKVLKEYAEKHPELKELLEELIKIAEEKGEEAKDVLIGVAVLIKEGTPDEEIKELIEKAIAYFKS
B5: GBRAP_96_7095 (protein)
chain: MLEEAKKLVKELIKALDTDPEKAEELAKKLLEFPVEVVTEALVEVVKKPEDAAKIAKLLLKLGDEKAEEVLLEAAEKAPGDISKAIIDAMEAYEKEQEAA
B6: GBRAP_11_2867 (protein)
chain: KKEELKKAAELAKEAIELLKKLLKEGVDNKELRKKIKELLKELIELLKKYGDESDAKIAEIALEDLKKAEEDPENAKEYVERALAALRVLYGNLLLRIDE
B7: GBRAP_95_7054 (protein)
chain: EDDRLAFEDHVEATDAAVELGDEEAARRHAARAVALFAAGGPLPFPKGISLEAAKLILAEAHRTADPATQAALLAEILAAAATEEDKAALRAHYAALLAA
B8: GBRAP_52_6314 (protein)
chain: MSERMEELARRLLELMLAGDEEGARALIRELVKTLSEEELLLLAEELARLAKTLDAEGLDALARLLELIEDEMEEEGVDERIIAEIRGIIITAIYEAEQR

What follows are binders tested against GABARAP, O95166 (assay: median log2 fold change of GCK-ALFA target abundance (FLAG IP / Myc IP barcode read proportion) (log2 ratio); each designed protein is fused to an ALFA-tag nanobody in HEK293 cells to bring the named protein to FLAG-tagged glucokinase (GCK); Myc marks an untargeted standard; higher = target protein stabilised (more abundant)). Conditions: target protein: 3xFLAG-MCP-GCK-ALFA reporter; HEK293 landing pad (RPLP).
GABARAP, O95166, sequence (O95166 whole entry, the tested form may be a part): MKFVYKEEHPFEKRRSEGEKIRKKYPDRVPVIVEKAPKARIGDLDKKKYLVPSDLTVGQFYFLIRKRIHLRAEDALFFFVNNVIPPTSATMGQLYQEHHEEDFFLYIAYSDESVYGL
Procedure, shortened: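 An ALFA-nanobody-fused binder library was recombined into HEK293 landing-pad cells and induced with 2 μg mL^−1 doxycycline. Cells were transfected with a plasmid expressing a FLAG-tagged target and a Myc-tagged standard. After 48 h, lysates underwent anti-FLAG and anti-Myc immunoprecipitation, and circular RNA barcodes were reverse transcribed, amplified and sequenced. Target abundance is the per-binder median log2 ratio of FLAG to Myc barcode read proportions. Barcodes needed ≥10^−7 proportion in both replicates, binders ≥3 barcodes per replicate, and a 10^−6 pseudocount was added; the two replicates were pooled.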

Binder | median log2 fold change
B1 | 0.11
B2 | -0.045
B3 | -0.0222
B4 | 0.309
B5 | 0.344
B6 | 0.253
B7 | 0.269
B8 | -0.236

Reference: the supplement of paper PMC12632987
